Laboratory results as given in PMC4336329 (PLoS ONE, 2015).
Out of some 310,000 compounds screened, about 2,200 (0.71%) showed an effect of 50% or more. The effect is printed as a negative number. The list shows a part of the results.

Biological target: human ether-à-go-go-related gene (hERG) potassium channel (human, UniProt Q12809)
Assay: primary screen, population patch clamp on CHO cells stably expressing hERG

human ether-à-go-go-related gene (hERG) potassium channel, sequence (Q12809 whole entry, looked up): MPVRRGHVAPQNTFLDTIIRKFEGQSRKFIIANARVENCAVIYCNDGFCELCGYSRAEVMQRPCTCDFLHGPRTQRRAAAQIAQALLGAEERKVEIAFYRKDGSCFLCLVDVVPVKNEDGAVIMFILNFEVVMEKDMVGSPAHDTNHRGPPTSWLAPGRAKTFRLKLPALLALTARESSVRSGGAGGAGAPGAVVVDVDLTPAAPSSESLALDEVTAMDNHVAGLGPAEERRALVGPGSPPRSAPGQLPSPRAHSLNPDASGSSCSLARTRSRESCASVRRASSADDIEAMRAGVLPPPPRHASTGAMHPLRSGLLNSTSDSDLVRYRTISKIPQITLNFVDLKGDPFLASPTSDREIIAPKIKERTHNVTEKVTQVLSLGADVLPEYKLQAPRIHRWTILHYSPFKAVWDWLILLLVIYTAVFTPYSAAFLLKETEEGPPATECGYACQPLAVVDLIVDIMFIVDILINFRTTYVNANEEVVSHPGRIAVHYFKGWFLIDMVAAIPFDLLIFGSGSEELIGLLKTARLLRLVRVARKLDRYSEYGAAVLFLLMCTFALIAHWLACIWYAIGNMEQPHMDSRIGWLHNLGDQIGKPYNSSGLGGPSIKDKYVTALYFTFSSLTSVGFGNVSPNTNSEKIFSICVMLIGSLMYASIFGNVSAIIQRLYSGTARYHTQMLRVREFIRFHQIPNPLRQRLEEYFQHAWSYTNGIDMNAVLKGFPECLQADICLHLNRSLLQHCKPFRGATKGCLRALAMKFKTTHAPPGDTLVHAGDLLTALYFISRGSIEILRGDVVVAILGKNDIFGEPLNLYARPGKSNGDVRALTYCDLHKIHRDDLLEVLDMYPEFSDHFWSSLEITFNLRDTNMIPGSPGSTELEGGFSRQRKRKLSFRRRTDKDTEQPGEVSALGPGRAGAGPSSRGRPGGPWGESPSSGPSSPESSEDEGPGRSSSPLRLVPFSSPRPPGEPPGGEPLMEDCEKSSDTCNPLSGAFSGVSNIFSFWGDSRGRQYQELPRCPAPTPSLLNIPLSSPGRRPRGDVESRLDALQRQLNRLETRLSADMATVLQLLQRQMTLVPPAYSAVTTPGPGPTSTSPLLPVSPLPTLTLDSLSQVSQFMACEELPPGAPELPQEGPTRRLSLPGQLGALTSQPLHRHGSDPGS

Row | Compound | hERG current change (%, negative = inhibition) at 1uM
1 | COc1ccc(NC(=O)C(=O)c2cn(CC(=O)N3CCCC3)c3ccccc23)c(OC)c1 | 13.3%
2 | O=C(CC12CC3CC(CC(Br)(C3)C1)C2)NC1=NCCS1 | 1.08%
3 | C/[N+]([O-])=C\C1C(=O)CC(C)(C)CC1=O | 8.29%
4 | Cc1ccccc1-n1c(SCC(=O)N/N=C/c2ccccc2OCC(=O)O)nc2ccccc2c1=O | 13.3%
5 | Cc1nn(C(C)C(=O)O)c2ccccc12 (centres unmarked) | 11.4%
6 | CC1=NN(c2ccccc2)C(=O)/C1=C\c1cn(CCC#N)nc1-c1ccc(Cl)cc1 | 6.87%
7 | C[C@]12CCC3c4ccc(O)cc4CCC3C1CC/C2=N\N (some centres unmarked) | 13.7%
8 | COc1cc(NC(=O)CCC(=O)O)nc(OC)n1 | 9.33%
9 | Cc1ccc(CN2CCNC(=O)C2CC(=O)N(C)CCc2cnn(C)c2)cc1 (centres unmarked) | 4.98%
10 | O=C1NC(=Nc2cccc(O)c2)S/C1=C\c1cccc([N+](=O)[O-])c1 | 22.1%
11 | CCc1ccccc1NC(=O)CSc1nc2n[nH]c(C)c2c(=N)n1-c1cccc(OC)c1 | -7.41%
12 | C#CCOCCOCCOCCNc1nc(N2CCOCC2)nc(N2CCN(C(=O)[C@H]([C@@H](C)CC)n3cc([C@@H](N)CC(C)C)nn3)CC2)n1.Cl | 7.82%
13 | O=C(c1cc(S(=O)(=O)N2CCOCC2)ccc1F)N(Cc1nnc(-c2ccccc2Cl)o1)C1CC1 | 13.8%
14 | CCc1noc(C)c1C(=O)N(CCOC)c1c(N)n(CC(C)C)c(=O)[nH]c1=O | 15.7%
15 | COc1ccccc1CCNC(=O)c1c(C)nn(CC(C)C)c1Cl | 11.1%
16 | C=CCNC(=S)NNC(=O)CCC(O)CCCCC (centres unmarked) | 11.2%
17 | COc1cc(C)c(CN2CCN(S(=O)(=O)c3ccc(Cl)s3)CC2)cc1OC | 4.58%
18 | COc1ccc(S(=O)(=O)N2CCCC2)cc1NC(=O)c1ccccc1 | 10.3%
19 | Cc1cc(C)cc(SCc2noc(C(=O)NC(C)C)c2C(=O)O)c1 | 23.7%
20 | CC(=O)Nc1ccc(N2C(=O)CSC2c2ccccc2[N+](=O)[O-])cc1 (centres unmarked) | 21.1%
21 | Cc1ccc(F)cc1NCC(=O)Nc1ccc(Cl)cc1F | 9.79%
22 | O=C(NCCCN1CCN(c2ccc(F)cc2)CC1)c1cccc(N2CCCC2=O)c1 | -24.2%

Row | Compound | hERG current change (%, negative = inhibition) at 1uM
23 | COC(=O)Cc1sc(-c2ccccn2)nc1-c1ccccc1 | 10.4%
24 | CCOC(=O)c1c(C)[nH]c(C)c1C(=O)COC(=O)c1cccc(S(=O)(=O)N(CC)CC)c1 | 2.25%
25 | Cc1nc(SCC(=O)NC(C)c2ccccc2)c2oc3ccccc3c2n1 (centres unmarked) | 1.93%
26 | CCn1cc([N+](=O)[O-])c(C(=O)Nc2c(C)nn(Cc3c(F)c(F)c(F)c(F)c3F)c2C)n1 | 3.28%
27 | CCCCCc1ccc(-c2cn(Cc3ccc([N+](=O)[O-])cc3)nn2)cc1 | 15.8%
28 | CCOC(=O)c1sc(NS(=O)(=O)c2cc(C)ccc2C)nc1C | 16.2%
29 | CCc1c(C)c(C#N)c2nc3ccccc3n2c1NCc1ccccn1 | -8.03%
30 | Cc1cccc(NC(=S)/N=C(\N)Nc2nc(C)c3ccc(C)cc3n2)c1 | 7.13%
31 | Cc1ccc(N2C(=O)CC(c3ccsc3)C3=C2CC(C)(C)CC3=O)cc1 (centres unmarked) | 8.52%
32 | CC(C)(C)NC(=O)NC(=O)COC(=O)COc1ccc(Cl)cc1Cl | 5.76%
33 | CC(NC(=O)CCc1nc2cc(S(=O)(=O)N3CCOCC3)ccc2n1C)c1ccc(S(N)(=O)=O)cc1 (centres unmarked) | -8.24%
34 | CC1CCN(C(=O)CN(c2ccccc2)S(=O)(=O)N(C)C)CC1 | 17.4%
35 | O=c1sc2ccccc2n1CCOc1ccccc1 | 12.2%
36 | COCCCN(CCC#N)C(=O)c1c(-c2c(Cl)cccc2Cl)noc1C | 13.4%
37 | COc1ccccc1NC(=O)Nc1ccc(-n2ccc(C(F)(F)F)n2)cc1 | 13.5%
38 | CCOC(=O)c1c(CC(C)C)csc1NC(=O)COC(=O)C1=NNC(=O)CC1 | 12.6%
39 | CS(=O)(=O)N(CC(=O)Nc1ccccc1C(=O)N1CCOCC1)c1ccc2c(c1)OCO2 | 6.56%
40 | Fc1ccc(Nc2nc3ccccc3s2)cc1 | 13.5%
41 | Cn1c(=O)c2c(nc(Br)n2CC(=O)c2cccs2)n(C)c1=O | -3.85%
42 | O=C1C=C(c2ccc(Oc3ccccc3)cc2)C[C@@H](c2ccc(F)cc2)C1 | 12.7%
43 | COc1ccc(C(=O)NCCCn2ccnc2)cc1.Cl | 8.12%
44 | CCn1c(=O)cc(SCC(=O)Nc2cccnc2)c2ccccc21 | -3.1%
